# Data reported in PubChem BioAssay AID588342 (National Center for Advancing Translational Sciences (NCATS), 2011).
# “And” between values parts separate entries of the source, which are not always exact repeats. Equal values may be shown once. The whole screen tested about 360,000 compounds, of which about 25,000 (6.9%) were called active. Inconclusive results, whose numbers are uncertain, are shown with a selection of clear calls. Calls follow the shape of the dose curve; as a rule, active = well fitted inhibition curve with a large enough effect; inconclusive = small, poorly fitted or top-dose-only effect; inactive = flat fitted curve, though single readings scatter. Where the call is inconclusive, the potency comes from a doubtful curve fit.
# Target: Luciferin 4-monooxygenase (Photinus pyralis) (UniProt P08659)
# Sequence of UniProt P08659 (P08659 whole entry, looked up): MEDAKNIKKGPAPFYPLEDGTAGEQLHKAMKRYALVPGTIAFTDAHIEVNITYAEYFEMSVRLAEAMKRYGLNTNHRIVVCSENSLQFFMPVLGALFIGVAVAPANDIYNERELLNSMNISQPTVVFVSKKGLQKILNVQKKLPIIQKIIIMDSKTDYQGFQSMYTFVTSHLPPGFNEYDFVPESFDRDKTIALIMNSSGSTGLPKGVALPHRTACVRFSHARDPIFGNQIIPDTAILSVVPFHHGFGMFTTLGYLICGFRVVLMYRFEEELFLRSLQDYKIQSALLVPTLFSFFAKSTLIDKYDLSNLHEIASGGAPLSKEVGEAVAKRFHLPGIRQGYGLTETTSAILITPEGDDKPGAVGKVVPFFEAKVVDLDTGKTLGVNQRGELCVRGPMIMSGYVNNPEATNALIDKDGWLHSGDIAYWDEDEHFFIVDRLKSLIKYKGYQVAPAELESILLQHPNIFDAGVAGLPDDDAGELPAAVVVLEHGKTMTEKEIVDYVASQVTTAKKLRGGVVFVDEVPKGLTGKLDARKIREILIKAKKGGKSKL
# Assay: qHTS profiling assay for firefly luciferase inhibitor/activator using purifed enzyme and Km concentrations of substrates (counterscreen for miR-21 project); also: nearly all actives have a fitted effect of over 55% in size;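 as to activity change, negative = inhibition: plate controls were vehicle for no effect and reference inhibitor for full effect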
# Settings: purified FLuc, luminescence inhibition; activity change, negative = inhibition: at 57.5 µM (top of the series)
# Method in brief: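 Biochemical qHTS of compounds, final roughly 60 µM downward over six points, against 10 nM purified firefly luciferase using Km concentrations of substrates (10 uM D-luciferin, 10 uM ATP) in Tris acetate pH 7.5 buffer; luminescence output.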
# Potency is read from the fitted curve at half-maximal effect; tags tell the direction and shape of the fitted curve.
SMILES,Potency,"activity change, negative = inhibition"
COc1ccc(-c2nnc3sc(-c4cccs4)nn23)cc1OC,"inconclusive: 21.3 µM [inhibitor, partial curve, poor fit]",
CCOc1ccccc1N1CSC2=C(C#N)C(c3c(OC)ccc4ccccc34)CC(=O)N2C1 (configuration not stated),active: 7.57 µM,
Cc1cc(-c2csc(N)n2)c(C)n1-c1ccccc1,active: 19 µM,
Cc1ccc(C(=O)N2CC=C(c3ccccc3)CC2)s1,"inconclusive: 37.9 µM [inhibitor, single point]",
CC(C)Oc1ccc(CNC(=O)C2=Cc3ccccc3OC2)cc1,"inconclusive: 37.9 µM [inhibitor, partial curve, poor fit]",
CCOCCCN(Cc1ccco1)C(=O)c1cc2c(s1)-c1c(C)cccc1OC2,,inactive: -13.1%
CCCOc1ccc(C2=NNC(c3cccs3)=Nc3ccc(OC)cc32)cc1,"inconclusive: 23.9 µM [inhibitor, single point]",
CCOC(=O)Cc1csc(NC(=O)c2sc3nc4ccc(C)cc4cc3c2N)n1,"inconclusive: 2.13 µM [inhibitor, partial curve, poor fit]",
Cc1cccc(C(=O)OCC(=O)N2CCCCCC2)c1,active: 19 µM,
O=C(Nc1ccc2c(c1)OCCO2)NC12CC3CC(CC(C3)C1)C2,active: 6.01 µM,
Cc1ccc(NC2=C/C(=N\S(=O)(=O)c3cccs3)c3ccccc3C2=O)c(C)c1,"inconclusive: 21.3 µM [inhibitor, partial curve]",
O=C(Nc1ccccc1O)c1cccc(NC(=O)c2ccco2)c1,"inconclusive: 21.3 µM [inhibitor, single point]",
O=C(N/N=C/C=C/c1ccccc1)c1cnccn1,"inconclusive: 37.9 µM [inhibitor, partial curve, poor fit]",
Cc1cccc(C(=O)OCc2cc(=O)n3ccsc3n2)c1,"inconclusive: 16.9 µM [inhibitor, partial curve, poor fit]",
CC(=O)Nc1ccc(C(=O)OCc2ccc(Cl)cc2)cc1,"inconclusive: 37.9 µM [inhibitor, partial curve, poor fit]",
O=C(Nn1c(SCc2cccc([N+](=O)[O-])c2)nc2ccccc2c1=O)c1ccccc1,"inconclusive: 23.9 µM [inhibitor, partial curve]",
COc1cccc(C(=O)Nc2cccc(-c3ccc4nncn4n3)c2)c1OC,"inconclusive: 21.3 µM [inhibitor, single point]",
CC(C)c1ccc(NC(=O)C2CCCCC2C(=O)O)cc1 (configuration not stated),"inconclusive: 26.9 µM [inhibitor, partial curve, poor fit]",
COc1ccc(C(=O)Nc2ccc3c(c2)OCCO3)cc1Br,active: 1.51 µM,
O=C1CC(C(=O)N2CCc3ccccc32)CN1c1cccc(C(F)(F)F)c1 (configuration not stated),,inactive: -1.58%
CCC(=O)Nc1nnc(-c2ccc(Cl)s2)o1,"inconclusive: 30.1 µM [inhibitor, partial curve, poor fit]",
COc1ccc(CCNc2nc(-c3cccnc3)nc3ccccc23)cc1OC,,inactive: -18.1%
C=CCNc1nc(N)c(C(=O)c2ccc3c(c2)OCO3)s1,"inconclusive: 26.9 µM [inhibitor, single point]",

SMILES,Potency,"activity change, negative = inhibition"
CCn1c(CCCOc2ccc(Cl)cc2Cl)n[nH]c1=S,"inconclusive: 23.9 µM [inhibitor, single point]",
CCCCN(C)C(=O)CCC(=O)Nc1ccc2nc(N3CCOCC3)cc(C)c2c1,"inconclusive: 16.9 µM [inhibitor, partial curve]",
CSc1ccc(S(=O)(=O)NCCSc2ccccn2)cc1,"inconclusive: 4.78 µM [inhibitor, partial curve, poor fit]",
COCCCNC(=O)c1cc(Nc2ccc(OC)cc2OC)nc2ccccc12,active: 19 µM,
O=C(N/N=C/c1c[nH]c2ccccc12)c1ccn(Cc2ccc(Cl)cc2Cl)n1,"inconclusive: 16.9 µM [inhibitor, partial curve]",
N#CC(C(=O)c1ccccc1Cl)=C1SCCCS1,"inconclusive: 33.8 µM [inhibitor, partial curve, poor fit]",
CC(=O)NC(C)CCc1ccccc1 (configuration not stated),"inconclusive: 37.9 µM [inhibitor, partial curve, poor fit]",
O=C(O)c1cccc(-c2ccc(/C=N/NC(=O)c3cccnc3)o2)c1,"inconclusive: 30.1 µM [inhibitor, single point]",
CCn1cc([N+](=O)[O-])c(C(=O)Nc2ccn(C34CC5CC(CC(C5)C3)C4)n2)n1,"inconclusive: 37.9 µM [inhibitor, partial curve, poor fit]",
COc1cccc(C(=O)Nc2ccccc2F)c1,"inconclusive: 23.9 µM [inhibitor, single point]",
O=C(/C=C/c1ccccc1)Nc1cc(-c2nc3cc(Cl)ccc3o2)ccc1Cl,"inconclusive: 23.9 µM [inhibitor, partial curve]",
CCCCOc1ccc2c(c1)/C(=C(\C(Cl)=C(Cl)Cl)[N+](=O)[O-])N2,"inconclusive: 23.9 µM [inhibitor, partial curve, poor fit]",
CCN(CC)c1ccc2cc(C(=O)Nc3ccccn3)c(=O)oc2c1,active: 0.536 µM,
CCc1nc2ccc(C(=O)NCCc3ccccc3OC)cc2nc1CC,"inconclusive: 23.9 µM [inhibitor, partial curve, poor fit] and inconclusive: 37.9 µM [inhibitor, single point]",
COc1ccccc1Oc1ccc(S(=O)(=O)Nc2cccnc2)cc1,"inconclusive: 37.9 µM [inhibitor, partial curve, poor fit]",
Oc1ccc(-c2csc(Nc3cccnc3)n2)cc1,"inconclusive: 23.9 µM [inhibitor, single point]",
Cc1ccc(NC(=S)N2CCCC2)cc1,"inconclusive: 23.9 µM [inhibitor, single point]",
COC(=O)c1cc2c(s1)-c1ccccc1CC2,"inconclusive: 16.9 µM [inhibitor, partial curve]",
O=C(N/N=C/c1cccc2ccccc12)c1ccncc1,"inconclusive: 16.9 µM [inhibitor, partial curve]",
CC(C)(C)Cc1nnc(NC(=O)CSc2ccccc2)s1,"inconclusive: 26.9 µM [inhibitor, partial curve, poor fit]",
Nc1ccc(C23CC4CC(CC(O)(C4)C2)C3)cc1,"inconclusive: 23.9 µM [inhibitor, single point]",
Clc1ccc(C2=NN(c3ccccc3)C(c3ccco3)C2)cc1 (configuration not stated),"inconclusive: 16.9 µM [inhibitor, partial curve]",
Oc1ccc(Oc2ccc(Oc3ccc(O)cc3)cc2)cc1,"inconclusive: 26.9 µM [inhibitor, single point]",

SMILES,Potency,"activity change, negative = inhibition"
C=CCn1c(SCC(=O)Nc2ccc(F)cc2F)nnc1-c1cnccn1,"inconclusive: 21.3 µM [inhibitor, single point]",
O=C(NCC(=O)N1CCCCCCC1)c1ccccc1Cl,"inconclusive: 8.49 µM [inhibitor, partial curve, poor fit]",
N#Cc1c(N)nc2c(c1N)CC(CO)O2 (configuration not stated),,inactive: 4.42%
Cc1[nH]n(S(=O)(=O)Cc2ccccc2)c(=O)c1N=Nc1ccccc1Cl,"inconclusive: 23.9 µM [inhibitor, single point]",
CC(C)(C)C(=O)NC(=S)Nc1ccc(F)cc1,"inconclusive: 37.9 µM [inhibitor, partial curve, poor fit]",
Cn1c(NN)nc2sc3c(c2c1=O)CC(C)(C)OC3,,inactive: -18.2%
C#CCOCCOCCOCCNc1nc(N2CCN(C(=O)CCCCCCCCCCNC(=O)[C@H](CCCCN)n3cc(C)nn3)CC2)nc(N2CCN(C(=O)CCCCCCCCCCNC(=O)[C@@H]([C@H](C)CC)n3cc(CCCCCN)nn3)CC2)n1,"inconclusive: 26.9 µM [inhibitor, single point]",
CC(O)CNc1nc2sc3c(c2c(=O)n1CCc1ccccc1)CCCCC3 (configuration not stated),"inconclusive: 16.9 µM [inhibitor, partial curve, poor fit]",
Cc1ccc(NC(=O)c2c(C)cc(C)nc2SCC(=O)Nc2ccc(Br)cc2)cc1,,inactive: -9.6%
Cc1ccc(Cn2nc(C)cc2C(=O)Nc2ccccc2Cl)cc1,active: 12 µM,
CC(=O)NCCN=C(C)c1sc2ccccc2c1O,"inconclusive: 21.3 µM [inhibitor, single point]",
COc1cc(C(=O)NC(C)CCn2cccn2)ccc1OC1CCN(C(C)=O)CC1 (configuration not stated),,inactive: 2.53%
COc1cccc(NC(=S)N/N=C2\CC3CCC2(C)C3(C)C)c1 (configuration not stated),"inconclusive: 30.1 µM [inhibitor, single point]",
Cc1cc(Nc2ccc(Cl)cc2)nc(N)n1,active: 19 µM,
Cc1ccc(O)c(NS(=O)(=O)c2cccc3nsnc23)c1,"inconclusive: 16.9 µM [inhibitor, partial curve]",
O=[N+]([O-])c1ccc(NCCOc2ccccc2Cl)nc1,"inconclusive: 23.9 µM [inhibitor, partial curve, poor fit]",
COc1ccc(/C=N/Nc2ccccc2C(=O)O)cc1,active: 0.151 µM,
CC(=O)c1ccc(NC(=O)Cc2ccsc2)cc1,"inconclusive: 23.9 µM [inhibitor, partial curve, poor fit]",
O=C(/C=C/c1cccc(Cl)c1)Nc1ncccn1,"inconclusive: 19 µM [inhibitor, partial curve]",
CCCCOC(=O)c1ccc(NC(=O)CN2C(=O)NC3(CCCCCC3)C2=O)cc1,"inconclusive: 23.9 µM [inhibitor, partial curve]",
Cc1nc2c(N=Nc3ccccc3F)c(N)nn2c(N)c1C#N,"inconclusive: 15.1 µM [inhibitor, partial curve, poor fit]",
